{
  "source": "patent US20200239541A1",
  "about": "(XYPHOS BIOSCIENCES, published 2020)",
  "binders": {"B1": {"name": "MICwed-Fc (Fc fusion)", "chain": "EPHSLRYNLTVLSWDGSVQSGFLTEVHLDGQPFLRCDRQKCRAKPQGQWAEDVLGNKTWDRETRDLTGWGKDLRMTLAHIKDQKEGLHSLQEIRVCEIHEDNSTRSSQHFYYDGELFLSQNLETKEWTMPQSSRAQTLAMNVRNFLKEDAMETDTHYHAMHADCLQELRRYLKSGVVLRRTVPPMVNVTRSEASEGNITVTCRASGFYPWNITLSWRQDGVSLSHDTQQWGDVLPDGNGTYQTWVATRISQGEEQRFTCYMEHSGNHSTHPVPSGKIEGRM[human IgG1 Fc left out here]"}, "B2": {"name": "MICv25-Fc (Fc fusion)", "chain": "EPHSLRYNLTVLSWDGSVQSGFLTEVHLDGQPFLRCDRQKCRAKPQGQWAEDVLGNKTWDRETRDLTGWGKDLRMTLAHIKDQKEGLHSLQEIRVCEIHEDNSTRSSQHFYYDGELFLSQNLETLEWTMPQSSRAQTLAMNVRNFLKEDAMETDTHYHAMRADCLSELRRYLKSGVVLRRTVPPMVNVTRSEASEGNITVTCRASGFYPWNITLSWRQDGVSLSHDTQQWGDVLPDGNGTYQTWVATRISQGEEQRFTCYMEHSGNHSTHPVPSGKIEGRM[human IgG1 Fc left out here]", "notes": "also called DSM25 α1-α2-α3-Fc"}},
  "assay_in_all_cases": "ELISA, ligand-Fc coated, biotinylated NKG2D titrated",
  "key": {"[1]": {"biological_target": "T1, Y152A mutant NKG2D ectodomain (His-avitag, biotinylated) (human)", "T1 construct": "also called Y152A non-natural NKG2D receptor; not shown: N-terminal His-avitag", "T1 chain": "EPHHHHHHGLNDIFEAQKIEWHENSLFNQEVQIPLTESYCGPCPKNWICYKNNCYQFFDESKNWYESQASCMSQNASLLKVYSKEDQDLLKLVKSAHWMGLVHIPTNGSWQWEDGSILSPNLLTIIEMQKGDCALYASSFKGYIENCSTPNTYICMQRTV", "procedure": "(§1) In addition to purifying the above 3 Fc-fusion proteins NKG2D ligand-Fc fusion proteins MICB-Fc, ULBP1-Fc, ULBP2-Fc, ULBP3-Fc, and ULBP4-Fc were purchased from R&D Systems, Inc. (Minneapolis, Minn.). Binding of the different α1-α2 domain-Fc fusions to both natural and non-natural NKG2D ectodomain proteins was analyzed using a plate-based ELISA method. All of the natural and non-natural α1-α2 domain-Fc fusions were coated overnight at 4° C. onto separate wells of Maxisorp 96 well plates using a coating concentration of 2 μg/ml in phosphate-buffered saline (PBS). The plates were washed 3-times in PBS/0.05% Tween20 at 20-22° C., and blocked with 0.5% bovine serum albumin for 2 hours. The biotinylated natural and non-natural NKG2D receptor proteins were titrated against the plate-bound NKG2D ligands for 2 hours at 20-22° C., washed 3 times with PBS/0.05% Tween20 at 20-22° C., and the bound NKG2D proteins subsequently detected using a streptavidin-HRP secondary detection step and developed with 1-Step Ultra TMB Elisa."}, "[2]": {"biological_target": "T2, His-avitag natural NKG2D ectodomain, biotinylated (human)", "T2 construct": "also called natural form of the ectodomain of NKG2D", "T2 chain": "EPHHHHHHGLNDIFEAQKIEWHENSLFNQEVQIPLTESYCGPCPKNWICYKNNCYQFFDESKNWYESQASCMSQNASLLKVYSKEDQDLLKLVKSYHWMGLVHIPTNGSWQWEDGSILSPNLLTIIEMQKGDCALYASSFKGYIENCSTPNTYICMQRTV", "procedure": "as §1"}, "[3]": {"biological_target": "T3, Y199A mutant NKG2D ectodomain (His-avitag, biotinylated) (human)", "T3 construct": "not shown: N-terminal His-avitag", "T3 chain": "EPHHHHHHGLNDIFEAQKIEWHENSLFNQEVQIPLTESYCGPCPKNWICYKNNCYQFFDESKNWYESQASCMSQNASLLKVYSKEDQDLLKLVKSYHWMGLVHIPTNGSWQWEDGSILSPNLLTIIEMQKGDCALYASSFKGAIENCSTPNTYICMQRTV", "procedure": "as §1"}, "[4]": {"biological_target": "T4, double Y152A plus Y199A mutant NKG2D ectodomain (His-avitag, biotinylated) (human)", "T4 construct": "not shown: N-terminal His-avitag", "T4 chain": "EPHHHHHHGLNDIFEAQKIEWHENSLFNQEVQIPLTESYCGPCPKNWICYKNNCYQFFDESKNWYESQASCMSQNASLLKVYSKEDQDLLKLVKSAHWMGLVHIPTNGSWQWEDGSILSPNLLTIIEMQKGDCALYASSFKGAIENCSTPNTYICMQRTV", "procedure": "as §1"}},
  "data": [
    {"binder": "B1", "values": [
      {"measurement": "binding result", "setting": "[1]", "result": "no binding"},
      {"measurement": "binding result", "setting": "[2]", "result": "binds"},
      {"measurement": "binding result", "setting": "[3]", "result": "no binding"},
      {"measurement": "binding result", "setting": "[4]", "result": "no binding"}
    ]},
    {"binder": "B2", "values": [
      {"measurement": "EC50", "setting": "[1]", "result": 50, "unit": "nM"},
      {"measurement": "EC50", "setting": "[2]", "result": 14, "unit": "nM"},
      {"measurement": "fold better than MICwed", "setting": "[2]", "result": 8, "unit": "fold"},
      {"measurement": "fold better than all natural α1-α2 domain ligands tested", "setting": "[2]", "result": "> 100", "unit": "fold"},
      {"measurement": "binding result", "setting": "[3]", "result": "no binding"},
      {"measurement": "binding result", "setting": "[4]", "result": "no binding"}
    ]}
  ]
}
